# Where “and” joins values, the source holds several entries; their conditions need not be identical. Identical values can stand only once.
# T1: human IL-17F (human, UniProt Q96PD4 31-163)
# T1 construct: also called hIL-17F; hIL17F
# T1 sequence: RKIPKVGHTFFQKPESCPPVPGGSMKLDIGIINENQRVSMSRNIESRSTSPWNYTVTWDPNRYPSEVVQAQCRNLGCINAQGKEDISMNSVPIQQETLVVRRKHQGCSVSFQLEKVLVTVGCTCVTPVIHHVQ
# T2: human IL-17A (human, UniProt Q16552 24-155)
# T2 construct: also called hIL-17A; hIL17A
# T2 sequence: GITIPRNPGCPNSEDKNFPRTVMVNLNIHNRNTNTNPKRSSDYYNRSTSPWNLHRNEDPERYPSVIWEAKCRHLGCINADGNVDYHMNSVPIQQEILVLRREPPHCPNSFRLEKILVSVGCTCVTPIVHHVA
# T3: murine IL-17F (mouse, UniProt Q7TNI7 29-161)
# T3 construct: also called mIL-17F; mIL17F
# T3 sequence: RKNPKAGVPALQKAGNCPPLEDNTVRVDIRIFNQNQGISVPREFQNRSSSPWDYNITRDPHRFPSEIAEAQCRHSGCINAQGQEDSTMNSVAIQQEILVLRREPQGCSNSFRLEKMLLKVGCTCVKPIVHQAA
# T4: murine IL-17A (mouse, UniProt Q62386 26-158)
# T4 construct: also called mIL-17A; mIL17A
# T4 sequence: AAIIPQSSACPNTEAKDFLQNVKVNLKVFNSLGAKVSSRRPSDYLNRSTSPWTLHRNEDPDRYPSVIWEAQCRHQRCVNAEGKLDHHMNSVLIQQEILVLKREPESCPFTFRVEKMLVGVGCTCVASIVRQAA
# B1: IL-17RC-Tbx-C(Fc9), soluble human IL-17RCx1 Fc fusion protein (Fc fusion)
# chain: LERLVGPQDATHCSPGLSCRLWDSDILCLPGDIVPAPGPVLAPTHLQTELVLRCQKETDCDLCLRVAVHLAVHGHWEEPEDEEKFGGAADSGVEEPRNASLQAQVVLSFQAYPTARCVLLEVQVPAALVQFGQSVGSVVYDCFEAALGSEVRIWSYTQPRYEKELNHTQQLPALPWLNVSADGDNVHLVLNVSEEQHFGLSLYWNQVQGPPKPRWHKNLTGPQIITLNHTDLVPCLCIQVWPLEPDSVRTNICPFREDPRAHQNLWQAARLRLLTLQSWLLDAPCSLPAEAALCWRAPGGDPCQPLVPPLSWENVTVDKVLEFPLLKGHPNLCVQVNSSEKLQLQECLWADSLGPLKDDVLLLETRGPQDNRSLCALEPSGCTSLPSKASTRAARLGEYLLQDLQSGQCLQLWDDDLGALWACPMDKYIHKGGSGGGTGSLVPRGS[human IgG1 Fc not shown]
# notes: also called hIL-17RC-Ig; soluble hIL-17RC
# B2: Variant 1407 (Fc fusion)
# chain: [about 300 residues not shown]ALPWLNVSADGDNVHLVLNVSEEQHFGLSLYWNQVQGPPKPRWHKNLTGPQIITLNHTDLVPCLCIQVWPLEPDSVRTNICPFREDPRAHQNLWQAARLRLLTLQSWLLDAPCSLPAEAALCWRAPGGDPCQPLVPPLSWENVTVDKVLEFPLLKGHPNLCVQVNSSEKLQLQECLWADSLGPLKDDVLLLETRGPQDNRSLCALEPSGCTSLPSKASTRAARLGEYLLQDLQSGQCLQLWDDDLGALWACPMDKYIHKEPKSSDKTHTCPPCPAPEAEGAPSVFLFPPKPKDTLMISRTPEVTCVVVDVSHEDPEVKFNWYVDGVEVHNAKTKPREEQYNSTYRVVSVLTVLHQDWLNGKEYKCKVSNKALPSSIEKTISKAKGQPREPQVYTLPPSRDELTKNQVSLTCLVKGFYPSDIAVEWESNGQPENNYKTTPPVLDSDGSFFLYSKLTVDKSRWQQGNVFSCSVMHEALHNHYTQKSLSLSPGK
# notes: The entry may include the signal peptide; also called IL17RA/RC 1407
# B3: Variant 1341 (Fc fusion)
# chain: SPRLLDFPAPVCAQEGLSCRVKNSTCLDDSWIHPKNLTPSSPKNIYINLSVSSTQHGELVPVLHVEWTLQTDASILYLEGAELSVLQLNTNERLCVKFQFLSMLQHHRKRWRFSFSHFVVDPGQEYEVTVHHLPKPIPDGDPNHKSKIIFVPDCEDSKMKMTTSCVSSALPWLNVSADGDNVHLVLNVSEEQHFGLSLYWNQVQGPPKPRWHKNLTGPQIITLNHTDLVPCLCIQVWPLEPDSVRTNICPFREDPRAHQNLWQAARLRLLTLQSWLLDAPCSLPAEAALCWRAPGGDPCQPLVPPLSWENVTVDKVLEFPLLKGHPNLCVQVNSSEKLQLQECLWADSLGPLKDDVLLLETRGPQDNRSLCALEPSGCTSLPSKASTRAARLGEYLLQDLQSGQCLQLWDDDLGALWACPMDKYIHKGGGGSGGGGSGGGGSGGGGS[human IgG1 Fc with changes not shown]
# notes: The entry may include the signal peptide; also called IL17RA/RC 1341; construct 1341
# B4: Variant 1210 (Fc fusion)
# chain: LERLVGPQDATHCSPGLSCRLWDSDILCLPGDIVPAPGPVLAPTHLQTELVLRCQKETDCDLCLRVAVHLAVHGHWEEPEDEEKFGGAADSGVEEPRNASLQAQVVLSFQAYPTARCVLLEVQVPAALVQFGQSVGSVVYDCFEAALGSEVRIWSYTQPRYEKELNHTQQLPALPWLNVSADGDNVHLVLNVSEEQHFGLSLYWNQVQGPPKPRWHKNLTGPQIITLNHTDLVPCLCIQVWPLEPDSVRTNICPFREDPRAHQNLWQAARLRLLTLQSWLLDAPCSLPAEAALCWRAPGGDPCQPLVPPLSWENVTVDKVLEFPLLKGHPNLCVQVNSSEKLQLQECLWADSLGPLKDDVLLLETRGPQDNRSLCALEPSGCTSLPSKASTRAARLGEYLLQDLQSGQCLQLWDDDLGALWACPMDKYIHKGGGGSGGGGSGGGGSGGGGS[human IgG1 Fc with changes not shown]
# notes: The entry may include the signal peptide; also called IL17RC 1210; x1 splice variant IL17RC exons 1-6, exons 8-16
# B5: Variant 1342 (Fc fusion)
# chain: ALPWLNVSADGDNVHLVLNVSEEQHFGLSLYWNQVQGPPKPRWHKNLTGPQIITLNHTDLVPCLCIQVWPLEPDSVRTNICPFREDPRAHQNLWQAARLRLLTLQSWLLDAPCSLPAEAALCWRAPGGDPCQPLVPPLSWENVTVDKVLEFPLLKGHPNLCVQVNSSEKLQLQECLWADSLGPLKDDVLLLETRGPQDNRSLCALEPSGCTSLPSKASTRAARLGEYLLQDLQSGQCLQLWDDDLGALWACPMDKYIHKGGGGSGGGGSGGGGSGGGGS[human IgG1 Fc with changes not shown]
# notes: The entry may include the signal peptide
# How the values were obtained:
# human IL-17F [1] = biological target: T1, human IL-17F; assay: Biacore, summary of Table 11
# Excerpt: (§1) The protocol was optimized to capture receptor at a theoretical binding max. before injecting a concentration series of each ligand to observe association and dissociation. […] The surface was regenerated with 2×30 sec. injections of pH 1.75 glycine between cycles.
# human IL-17A [2] = biological target: T2, human IL-17A; assay: Biacore, summary of Table 11
# Excerpt: as §1
# human IL-17F [3] = biological target: T1, human IL-17F; assay: Biacore, receptor captured by anti-human IgG Fc on CM5 chip, ligand as analyte
# Excerpt: as §1
# human IL-17A [4] = biological target: T2, human IL-17A; assay: as above
# Excerpt: as §1
# human IL-17F [5] = biological target: T1, human IL-17F; assay: Biacore, soluble receptor captured on chip, cytokine as analyte
# human IL-17A [6] = biological target: T2, human IL-17A; assay: as above
# human IL-17F [7] = biological target: T1, human IL-17F; assay: cell-based or functional assay
# murine IL-17F = biological target: T3, murine IL-17F; assay: Biacore, soluble receptor captured on chip; ND=no detectable binding
# murine IL-17A = biological target: T4, murine IL-17A; assay: as above
# human IL-17F [8] = biological target: T1, human IL-17F; assay: cell-based competition binding, FACS
# Protocol: (§2) The biotinylation of the ligand allows for FACS detection using a secondary Streptavidin conjugated fluorophore. A reduction in cell bound ligand over a titration of the soluble receptor is recorded as a reduction in the mean fluorescence of the cells. Biotinylated ligands are individually pre-mixed at 1 ug/ml with titrating amounts of soluble receptor in staining media (HBSS+1% BSA+0.1% NaAzide+10 mM HEPES) in 100 ul volumes and incubated at RT for 15 minutes. A BHK cell line stably transfected with full length IL17RCx4 is prepared for ligand staining by resuspension with Versene (Invitrogen cat. 15040-066), equilibrating to 2×10e5 cells/100 ul, pelleting, and resuspension in the ligand/soluble receptor pre-mix. Stained cells are incubated at 4° for 30 minutes, washed 1× in staining media, and stained with Streptavidin-PE (BD Pharmingen cat. 554061) at a 1:100 ratio. Cells are incubated at 4° in the dark for 30 minutes, washed 2× in staining media, and re-suspended in a 1:1 ratio of staining media and Cytofix (BD Bioscience 554655). The BD LSRII Flow Cytometer or similar instrument is used for data collection and analysis. FIG. 5 depicts a standard graph. The graph was generated using the Prizm software program. The Y values represent the MFI normalized to maximum and minimum (100% and 0%) based on ligand only and no ligand/no soluble receptor control wells, and thus the percent binding of the ligand to the cells. The software calculates the IC50 for each curve.
# human IL-17A [9] = biological target: T2, human IL-17A; assay: cell-based competition binding, FACS
# Protocol: as §2
# human IL-17A [10] = biological target: T2, human IL-17A; assay: cell-based competition binding, FACS; cell-based competition binding on IL-17RC transfected BHK cells; weakest construct
# Protocol: as §2, with “The Y values represent the MFI normalized to maximum and minimum (100% and 0%) based on ligand only and no ligand/no soluble receptor control wells, and thus the percent binding of the ligand to the cells. The software calculates the IC50 for each curve.” left out
binder,measurement,setting,value
B1,Kd,human IL-17F [1],~0.4 nM
same,Kd,human IL-17A [2],~0.4 nM
same,Kd,human IL-17F [3],0.435 nM and 0.346 nM
same,koff,human IL-17F [3],0.000431 s⁻¹ and 0.000384 s⁻¹
same,kon,human IL-17F [3],991000 M⁻¹ s⁻¹ and 1.11e+06 M⁻¹ s⁻¹
same,Kd,human IL-17A [4],0.469 nM and 0.352 nM
same,koff,human IL-17A [4],0.00049 s⁻¹ and 0.000438 s⁻¹
same,kon,human IL-17A [4],1.05e+06 M⁻¹ s⁻¹ and 1.24e+06 M⁻¹ s⁻¹
same,Kd,human IL-17F [5],0.435 nM and 0.346 nM
same,Kd,human IL-17A [6],0.469 nM and 0.352 nM
same,"IC50, luciferase in hIL-17RCX4/NIH3T3/KZ142.8 cells, 1 ng/ml IL-17F",human IL-17F [7],6 µg/mL
same,binding result,murine IL-17F,no binding
same,binding result,murine IL-17A,no binding
B2,IC50,human IL-17F [8],33 µg/mL and 42 µg/mL
same,IC50,human IL-17A [9],7 µg/mL and 9 µg/mL
B3,IC50,human IL-17F [8],47 µg/mL
same,IC50,human IL-17A [9],30 µg/mL
B4,IC50,human IL-17F [8],31 µg/mL and 61 µg/mL and 67 µg/mL
same,IC50,human IL-17A [9],35 µg/mL and 47 µg/mL and 74 µg/mL
B5,IC50,human IL-17A [10],217 µg/mL
same,IC50,human IL-17F [8],313 µg/mL
